Data published in PubChem BioAssay AID485344 (National Center for Advancing Translational Sciences (NCATS), 2010).
In all, about 340,000 compounds went through this assay and about 6,900 (2%) were called active. No stated cut-off is given here; in the data, active means inhibition above about 30%; inactive means below that, where a call was filed. This is a selection; strong and weak results do not stand in their true shares. Entries without a call were filed so in the source.

target: D(2) dopamine receptor (Homo sapiens) (UniProt P14416); test: HTS Assay for Allosteric Antagonists of the Human D2 Dopamine Receptor: Primary Screen for Antagonists; conditions: HEK293 TREx D2 cells, calcium flux, dopamine EC80; at 10 µM; stronger effect = higher value; further: 0% is about no effect
Summary of the method: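 Measurement of antagonist activity uses fluorescent calcium dye in inducible HEK293 T-REx D2 cells: 10 s baseline, compound addition with 180 s read, EC80 dopamine addition with a further 180 s read.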

Chain of UniProt P14416 (P14416 whole entry, looked up): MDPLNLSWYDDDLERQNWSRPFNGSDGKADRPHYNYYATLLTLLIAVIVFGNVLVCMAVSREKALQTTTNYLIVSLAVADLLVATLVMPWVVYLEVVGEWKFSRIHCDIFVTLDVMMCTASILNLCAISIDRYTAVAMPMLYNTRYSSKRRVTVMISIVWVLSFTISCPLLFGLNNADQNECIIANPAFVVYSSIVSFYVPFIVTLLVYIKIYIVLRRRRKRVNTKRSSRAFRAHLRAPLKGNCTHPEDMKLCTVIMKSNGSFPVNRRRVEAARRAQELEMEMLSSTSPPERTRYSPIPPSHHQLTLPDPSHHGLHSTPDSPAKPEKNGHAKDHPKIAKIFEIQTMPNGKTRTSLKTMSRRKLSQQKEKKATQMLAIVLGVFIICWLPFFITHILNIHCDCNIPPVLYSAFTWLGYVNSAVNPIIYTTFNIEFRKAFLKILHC

| SMILES | inhibition |
| --- | --- |
| Cc1c(Cl)cccc1N1CCn2c1nc1c2c(=O)n(CC(=O)O)c(=O)n1C | -7.86% |
| COc1ccc(Cl)cc1NC(=O)Nc1c[nH]c(=O)[nH]c1=O | 1.3% |
| O=C(NCCc1ccc(Cl)cc1)c1nnc(Cc2ccc(F)cc2)o1 | 2.58% |
| O=C(CCSCc1ccc(Cl)cc1)NCCc1ccccc1 | 7.31% |
| Cc1ccc(NC(=O)C2CCCN(c3ncnc4onc(C)c34)C2)c(Cl)c1 (configuration not stated) | 9.05% |
| Cc1cccc(C)c1Nc1c(-c2ccc(N3CCOCC3)cc2)nc2ncccn12 | 13.9% |
| O=C(Cn1nc(Cc2ccncc2)c2ccccc2c1=O)Nc1cccc(C(F)(F)F)c1 | 3.09% |
| COc1ccccc1CNC(=O)Cn1c(-c2ccc(F)cc2)cc(C(C)=O)c1C | 14.8% |
| CCN(CC)CCN(C(=O)c1ccco1)c1nc2c(C)c(C)ccc2s1 | 11.1% |
| CNC(=O)c1c(NC(=O)c2cc(=O)c3cc(C)c(C)cc3o2)sc2c1CCCC2 | 9.93% |
| Cc1ccc(-c2cc(C(F)(F)F)n3nc(-c4cccc(Br)c4)cc3n2)cc1 | -15.8% |
| CN(C(=O)c1c[nH]c2ccc(S(=O)(=O)Nc3cccc(C(F)(F)F)c3)cc2c1=O)C1CCCCC1 | -0.644% |
| CCn1c(=O)cc(OCC(=O)N2CCN(c3ccc(C(C)=O)cc3)CC2)c2ccccc21 | -3.34% |
| COc1ccc(N2CCN(C(=O)CN3CCSc4ccccc43)CC2)cc1 | 1.72% |
| Cc1ccc2oc(=O)c(S(=O)(=O)c3ccc(F)cc3)cc2c1 | -5.97% |
| CCc1nc2ccc(C(=O)NCc3ccc(N(C)C)cc3)cc2nc1CC | 13.1% |
| CC1CCCC(NC(=O)COC(=O)c2cccc(NS(=O)(=O)/C=C/c3ccccc3)c2)C1C (configuration not stated) | active: 49.8% |
| CCN(C(=O)CSc1nc2ccccc2n1Cc1ccc(C(=O)OC)cc1)c1ccccc1 | 2.67% |
| COc1ccc(CCN2C(=O)NC(NC(=O)c3ccccc3OC)(C(F)(F)F)C2=O)cc1OC (configuration not stated) | -7.07% |
| CCC(Sc1ncc(S(=O)(=O)c2ccc(C)cc2)c(=O)[nH]1)C(=O)Nc1cc(C)ccc1C (configuration not stated) | 0.43% |
| CCc1ccc(NC(=O)CN2CCN(C3CCCCC3)C(=O)C2=O)cc1 | 2.43% |
| Cc1ccc(/C=C(\C#N)C(=O)Nc2ccc(Br)cc2)o1 | 0.0126% |
| O=C(Cn1cc(SCc2ccc(Br)cc2)c2ccccc21)N1CCCCC1 | 2.77% |
| O=C(Nc1c(C(=O)c2ccc(Cl)cc2)oc2ccccc12)c1cc(=O)c2ccccc2o1 | 6.53% |
| COc1ccc(NC(=O)c2cnc(Nc3ccc(C)c(Cl)c3)c3ccccc23)c(OC)c1 | -12.7% |

| SMILES | inhibition |
| --- | --- |
| CCOC(=O)Nc1ccc(NC(=O)OCC)cc1 | active: 38.8% |
| O=C(CN1CCN(c2ccccc2F)CC1)c1c[nH]c2ccc(F)cc12 | active: 35.1% |
| COc1ccc2c(c1)CC(C(=O)NCCN1CCN(c3ccccc3F)CC1)CO2 (configuration not stated) | -3.89% |
| CCCC(=O)N1CCc2cc(OC)c(OC)cc2C1COc1ccc2c(C)cc(=O)oc2c1 (configuration not stated) | 2.92% |
| COc1ccc(NC(=O)Cn2c(=O)cc(C)c3c(C)nn(C)c32)cc1 | 2.66% |
| COc1ccc(CNc2nc(-c3ccc(OC)cc3)cc(C(F)(F)F)n2)cc1 | -18.5% |
| CCCSc1ncc(Cl)c(C(=O)Nc2ccc(S(=O)(=O)N3CCC(C)CC3)cc2)n1 | -11.7% |
| Cc1ccc(Cl)cc1N1CCN(C(=O)c2cnn(C(C)(C)C)c2C2CCN(C(=O)OC(C)(C)C)CC2)CC1 | -3.16% |
| CCOc1ccc(NC(=O)Cn2cc(C(=O)c3ccc(CC)cc3)c(=O)c3cc4c(cc32)OCO4)cc1 | -2.72% |
| C=C(C)Cn1c(=O)c2c(nc3n2CCN3c2cc(C)cc(C)c2)n(C)c1=O | 16.2% |
| CN(C)CCNC(=O)CN1N=C(c2ccccc2)CCC1=O | 8.81% |
| Cc1nn(-c2ccc(N3CCOCC3)nn2)c(C)c1CCC(=O)NCc1ccccc1 | 17.5% |
| c1nnc(-c2ccc3c(c2)OCO3)o1 | active: 30.6% |
| Cc1cc(C)c(NC(=O)CSc2n[nH]c(-c3ccccc3Cl)n2)c(C)c1 | -9.61% |
| O=C(N/N=C/C=C\c1ccccc1[N+](=O)[O-])c1ccccn1 | active: 81.4% |
| Cc1ccn2c(Nc3ccccc3C)c(-c3ccc(N4CCOCC4)cc3)nc2c1 | -3.21% |
| Cc1ccccc1CCNC(=O)c1ccc(NC(=O)N2CC(C)Sc3ccccc32)cc1 (configuration not stated) | -2.68% |
| COc1ccccc1NC(=O)c1sc2nc3c(c(C(F)(F)F)c2c1N)CN(C(C)=O)CC3 | 6.55% |
| Cc1ccc(NC(=O)CS(=O)CC(=O)N(CC(=O)NC2CCCC2)c2cccc(C)c2C)cc1 (configuration not stated) | active: 55.4% |
| CCOC(=O)C1CCN(Cc2cc(C(C)C)c(O)c(C(C)C)c2)CC1 | active: 44.9% |
| Cc1ccc(C)c(Nc2nnc(-c3ccc(C)c(S(=O)(=O)N4CCN(C)CC4)c3)c3ccccc23)c1 | -4.99% |
| CCc1ccc(NC(=O)C(=O)NCCc2csc(-c3cccc(F)c3)n2)cc1 | 9.99% |
| CCn1nc(C)c2c(-c3ccccc3)cc(=O)n(C(C)C(=O)Nc3cccc(F)c3)c21 (configuration not stated) | 9.41% |
| CCOc1ccc(NC(=O)CSc2oc(-c3cccs3)nc2S(=O)(=O)c2ccc(C)cc2)cc1 | 24.2% |
| CCOC(=O)CSc1nnc(COc2ccc3ccccc3c2)o1 | active: 34% |

| SMILES | inhibition |
| --- | --- |
| COc1ccc(N2C(=O)CSC23CCCCC3)cc1 | active: 33.1% |
| Cc1cc2cc(CCNS(=O)(=O)c3ccc(Br)cc3)c(=O)[nH]c2cc1C | 1.98% |
| Cc1ccc(NC(=O)c2cc(S(=O)(=O)N3CCC(C)CC3)cn2C)cc1Cl | -12.6% |
| COCCN1Cc2cccc(C(=O)Nc3ccc(C(=O)OC)cc3)c2C1=O | 0.264% |
| O=C(CCS(=O)(=O)c1nc(-c2cccs2)cc(C(F)(F)F)n1)Nc1ccc(Br)cc1 | 3.7% |
| O=C(CSc1nccc(=O)[nH]1)Nc1ccc(S(=O)(=O)N2CCOCC2)cc1 | active: 31.5% |
| COc1ccccc1C(=O)Nc1ccc2nc(SCC(=O)N3CCCC3)sc2c1 | 3.92% |
| Cc1ccc(NC(=O)/C(C#N)=C\c2ccc(-c3ccc(Cl)cc3)o2)c(C)c1 | -7.32% |
| COCCNC(=O)CCCn1c(SCC(=O)c2ccc(F)cc2)nc2c(sc3ccccc32)c1=O | 1.16% |
| COc1ccc(C(=O)OCC(=O)Nc2cccc(C(C)=O)c2)cc1OC | active: 113% |
| COc1cc2oc(=O)c(CC(=O)NCCc3ccccc3)c(C)c2cc1Cl | -2.88% |
| COc1ccc(NC(=O)CCc2nc3c(C)nn(-c4ccc(C)cc4)c3n(C)c2=O)c(OC)c1 | 17.3% |
| CSc1nn(Cc2ccccc2C)c(NC(C)=O)c1S(=O)(=O)c1ccc(C)cc1 | 2.41% |
| CCOC(=O)CCn1c(=O)c2cccn2c2cccnc21 | 5.29% |
| COc1ccc(OC)c(CNC(=O)c2cc(S(=O)(=O)N3CCC(C)CC3)cn2C)c1 | 1.21% |
| Cc1ccccc1NC(=O)c1cc2sccc2n1Cc1ccc(F)cc1 | 3.54% |
| CN(c1ccccc1)S(=O)(=O)c1nnc(NC(=O)c2ccco2)s1 | -3.68% |
| CCc1cccc(C)c1NC(=O)C1CCN(c2nnc(C)c3c(C)n(-c4ccccc4)nc23)CC1 | -8.44% |
| Cc1cccc(NC(=O)C2CCN(S(=O)(=O)c3ccc4[nH]c5c(c4c3)CCCCC5)CC2)c1 | 8.23% |
| O=C(N/N=C/c1cccc(Br)c1)c1ccc(Br)cc1 | active: 49.9% |
| COc1ccc(CNC(=O)C2CCN(S(=O)(=O)c3ccc4nc5c(c(C(=O)O)c4c3)CCCC5)CC2)cc1 | -15.6% |
| COc1ccc2c(c1)CCc1c(C(=O)Nc3cnn(Cc4ccc(Cl)cc4Cl)c3)noc1-2 | 18.8% |
| COc1cccc(NC(=O)CCSc2nc(-c3ccco3)cc(C(F)(F)F)n2)c1 | 3.79% |
| O=C(NC1CCN(Cc2ccccc2)CC1)c1cccc(Br)c1 | active: 98.3% |
| CCc1nn2c(=O)cc(COC(=O)c3cccc(NC(=O)COc4ccccc4)c3)nc2s1 | -11.6% |

| SMILES | inhibition |
| --- | --- |
| COc1ccc(-c2noc(N3CCN(c4ccc(Cl)cc4)CC3)n2)cc1OC | -25.9% |
| O=C(CN1CCN(c2ccccn2)CC1)Nc1cccc(S(=O)(=O)N2CCCC2)c1 | active: 60.1% |
| CC(C)Cc1nn2c(=O)cc(COC(=O)c3ccccc3NC(=O)c3cccs3)nc2s1 | 4.13% |
| Clc1ccc(Nc2nc(-c3ccccc3)c3ccccc3n2)c(Cl)c1 | 2.63% |
| O=C(NCc1ccccc1)c1ccc2nnsc2c1 | active: 33.6% |
| O=S(=O)(c1cc(Br)c(Br)s1)N1CCN(c2ccccc2)CC1 | 4.63% |
| COc1ccccc1C(=O)Nc1cccc(OCc2cc(=O)n3c(C)csc3n2)c1 | 4.88% |
| CC(C)c1ccc(NC(=O)C2CCN(S(=O)(=O)c3ccc(Br)s3)CC2)cc1 | -0.598% |
| CCOc1ccc(NC(=O)CCc2nc3cccnc3n2Cc2ccc(OC)cc2)cc1 | 9.94% |
| Cc1ccccc1CN1C(=O)c2ccccc2Sc2ccc(C(=O)O)cc21 | -7.58% |
| Cc1ccc(NC(=O)C2CCCN(c3cnccn3)C2)cc1Cl (configuration not stated) | -18.8% |
| Nc1nnc(SCC(=O)Nc2cccc(F)c2)s1 | -9.03% |
| CCN(CC)c1ccc(C(=O)NCc2ccc3c(c2)CCN3C(=O)c2cccc(C)c2)cc1 | 7.54% |
| CCOc1ccc(C2C(=O)N(C3CCCCCC3)CC(=O)N2Cc2ccc(F)cc2)cc1OC (configuration not stated) | -4.8% |
| CCN(CC)c1ccc(NC(=O)CN(C)S(=O)(=O)c2cccc3nsnc23)c(C)c1 | 3.22% |
| CCOc1ccc(CCNC(=O)C(CC(C)C)N2Cc3ccccc3C2=O)cc1OCC (configuration not stated) | -12.8% |
| CCOc1ccccc1NC(=O)Nc1ccc2nc(N3CCN(C)CC3)cc(C)c2c1 | 5.44% |
| COc1ccc(C(=O)Nc2ccc(N3CCN(c4ccccc4)CC3)c(C(=O)O)c2)cc1 | 6.69% |
| COc1c(C)cccc1C(=O)Nc1ccc(Cl)c(-c2nc3cc(C)ccc3o2)c1 | -0.278% |
| CC(C)CCOc1ccc(Cn2c(=O)sc3ccccc32)cc1 | -1.74% |
| CCOc1ccc(CCNC(=O)CSc2nc3ccccc3nc2Cc2ccc(C)cc2)cc1OCC | 19.4% |
| CC(C)c1ccc(NC(=O)CSc2ncnc3c2sc2ccccc23)cc1 | 21.8% |
